Measured values reported in patent US20250136696A1 (HARBOUR BIOMED SHANGHAI, published 2025).

How the values were obtained:
Assay in all cases: ELISA on coated B7 family protein
[1] = target: T1, CD275/ICOS ligand protein, human, recombinant (Fc tag) (Sino Biological, 11559-H02H) (human, UniProt O75144 19-258)
T1 construct: Bought; also called B7H2
T1 sequence (looked up): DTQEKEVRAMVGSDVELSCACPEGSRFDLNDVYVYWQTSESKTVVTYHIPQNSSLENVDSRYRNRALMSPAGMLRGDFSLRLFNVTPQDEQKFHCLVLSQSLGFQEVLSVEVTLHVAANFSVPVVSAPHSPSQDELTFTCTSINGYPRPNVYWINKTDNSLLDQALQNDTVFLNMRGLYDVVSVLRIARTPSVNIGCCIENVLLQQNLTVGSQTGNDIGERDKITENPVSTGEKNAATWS
Experimental: (§1) B7 family proteins (see Table 7 for details) were respectively diluted to […] with PBS, added into a 96-well plate (Corning, #9018) at 100 μl/well, and incubated at 4° C. overnight. After the liquid was discarded, the plate was washed 3 times with a PBST buffer (pH 7.4, containing 0.05% tween-20), 250 μl of blocking solution containing 2% BSA was added, and the plate was incubated for 1 hour at 37° C. The blocking solution was discarded, the plate was washed 3 times with PBST buffer (pH 7.4, containing 0.05% Tween-20), the antigen-binding protein to be tested was diluted to 2 concentrations of 10 nM and 1 nM, 100 μl of the diluted antigen-binding protein was added to each well, and the plate was incubated for 1 hour at 37° C., with the isotype antibody as the control. After the plate was washed 3 times with PBST buffer (pH 7.4, containing 0.05% Tween-20), goat anti-human HRP secondary antibody (Invitrogen, #A18805) diluted 5000 times was added, and the plate was incubated at 37° C. for 1 hour in the dark. After the plate was washed 3 times with PBST buffer (pH 7.4, containing 0.05% tween-20), TMB (Biopanda, #TMB-S-003) was added at 100 μl/well, and the plate was placed at room temperature for about 30 minutes in the dark; and a stop solution (BBI life sciences, #E661006-0200) was added to each well at 50 μl/well to stop the reaction, and the absorbance at 450 nm (OD450) was determined in a microplate reader (PerkinElemer, #Enspire).

[2] = target: T2, B7-H6 /NCR3LG1 protein, human, recombinant (Fc tag) (Sino Biological, 16140-H02H) (human, UniProt Q68D85 25-262)
T2 construct: Bought
T2 sequence (looked up): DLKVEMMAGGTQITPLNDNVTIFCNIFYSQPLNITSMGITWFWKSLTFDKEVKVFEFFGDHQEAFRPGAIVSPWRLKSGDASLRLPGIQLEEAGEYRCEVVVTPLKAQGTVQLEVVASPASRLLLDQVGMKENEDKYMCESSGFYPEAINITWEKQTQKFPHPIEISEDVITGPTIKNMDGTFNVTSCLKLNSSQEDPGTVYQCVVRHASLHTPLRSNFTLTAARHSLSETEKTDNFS
Experimental: as §1

[3] = target: T3, Recombinant human B7H4 Fc chimera (R&D, 8870-B7-050) (human, UniProt Q7Z7D3 29-258)
T3 construct: Bought
T3 sequence (looked up): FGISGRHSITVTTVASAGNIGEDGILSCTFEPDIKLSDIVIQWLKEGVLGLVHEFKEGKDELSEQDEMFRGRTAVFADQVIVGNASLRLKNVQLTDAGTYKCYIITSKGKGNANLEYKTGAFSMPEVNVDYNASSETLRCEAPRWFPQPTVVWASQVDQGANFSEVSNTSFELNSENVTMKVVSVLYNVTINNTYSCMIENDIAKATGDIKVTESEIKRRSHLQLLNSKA
Experimental: as §1

[4] = target: T4, Human B7-1/CD80 protein, Fc tag (Acro, B71-H5259) (human, UniProt P33681 35-242)
T4 construct: Bought
T4 sequence (looked up): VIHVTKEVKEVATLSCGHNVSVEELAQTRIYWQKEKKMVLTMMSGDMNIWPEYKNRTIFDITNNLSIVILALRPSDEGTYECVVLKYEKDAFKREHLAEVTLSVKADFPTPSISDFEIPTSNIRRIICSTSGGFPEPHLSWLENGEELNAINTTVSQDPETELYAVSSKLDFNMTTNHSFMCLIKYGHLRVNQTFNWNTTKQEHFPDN
Experimental: as §1

[5] = target: T5, Recombinant human VISTA/B7H5/PD-1H Fc chimera (R&D, 7126-B7-050) (human, UniProt Q9H7M9 33-194)
T5 construct: Bought
Experimental: as §1

[6] = target: T6, Human B7-DC/PD-L2/CD273 protein, recombinant (Fc tag) (Sino Biological, H10292-H02H) (human, UniProt Q9BQ51 20-219)
T6 construct: Bought
T6 sequence (looked up): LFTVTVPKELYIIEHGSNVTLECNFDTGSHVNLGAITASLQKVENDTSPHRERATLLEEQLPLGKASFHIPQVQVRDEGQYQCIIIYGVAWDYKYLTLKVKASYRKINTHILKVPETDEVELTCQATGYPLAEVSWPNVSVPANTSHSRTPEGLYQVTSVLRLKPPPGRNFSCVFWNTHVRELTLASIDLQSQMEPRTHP
Experimental: as §1

[7] = target: T7, Human B7-2/CD86 protein, Fc tag (Acro, CD6-H5257) (human, UniProt P42081 26-247)
T7 construct: Bought
T7 sequence (looked up): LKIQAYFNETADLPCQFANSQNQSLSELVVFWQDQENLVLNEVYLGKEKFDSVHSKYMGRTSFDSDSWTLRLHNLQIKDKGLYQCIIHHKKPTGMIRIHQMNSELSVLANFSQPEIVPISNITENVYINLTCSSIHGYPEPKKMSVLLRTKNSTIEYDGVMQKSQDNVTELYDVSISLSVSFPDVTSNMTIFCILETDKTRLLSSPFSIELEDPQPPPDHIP
Experimental: as §1

[8] = target: T8, Human PD-L1/B7-H1 protein, His tag (Acro, PD1-H5229) (human, UniProt Q9NZQ7 partial chain)
T8 construct: Bought
Experimental: as §1

Measured: binding result

T8 sequence (Q9NZQ7 19-238 limits assumed): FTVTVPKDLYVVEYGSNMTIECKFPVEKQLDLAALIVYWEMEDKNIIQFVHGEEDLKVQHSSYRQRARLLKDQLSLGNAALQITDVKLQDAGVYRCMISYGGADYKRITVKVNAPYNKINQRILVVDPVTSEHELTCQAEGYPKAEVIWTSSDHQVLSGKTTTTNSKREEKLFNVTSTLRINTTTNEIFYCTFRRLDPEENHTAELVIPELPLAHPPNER

B1: PR004261 (antibody, human IgG1, kappa)
heavy: QVQLVESGGGVVQPGRSLRLSCAASGFTFSDYGIHWVRQAPGKGLEWVAVIWYDGSDKYYADSVRGRFTISRDNSKNTLSLQMNSLRVEDTAVYYCARDRSSGAMGYFVYWGQGTLVTVSSASTKGPSVFPLAPSSKSTSGGTAALGCLVKDYFPEPVTVSWNSGALTSGVHTFPAVLQSSGLYSLSSVVTVPSSSLGTQTYICNVNHKPSNTKVDKKV[not shown - human IgG1 Fc with changes]
light: [not shown - about 100 residues][not shown - about 100 residues]
notes: Variant of PR003249; Human IgG1 with LALA mutation in Fc
no binding (tested: 10 nM): all assays above

B2: PR004262 (antibody, human IgG1, kappa)
heavy: QVQLVESGGGVVQPGRSLRLSCAASGFTFSNYGMHWVRQVPGKGLEWVAVIWYDGSEKDYADSVKGRFTISRDNSKNTLYLQMNSLRVEDTAVYYCAKDLISGIYYVDHWGQGTLVTVSSASTKGPSVFPLAPSSKSTSGGTAALGCLVKDYFPEPVTVSWNSGALTSGVHTFPAVLQSSGLYSLSSVVTVPSSSLGTQTYICNVNHKPSNTKVDKKV[not shown - human IgG1 Fc with changes]
light: DIQMTQSPSSLSASVGDRVTITCRASQGISNYLAWYQQKPGKVPKLLIYAASTLQSGVPSRFSGSGSGTDFTLTISSLQPEDVATYYCQKYNSAPFTFGPGTKVDIKRTVAAPSVFIFPPSDEQLKSGTASVVCLLNNFYPREAKVQWKVDNALQSGNSQESVTEQDSKDSTYSLSSTLTLSKADYEKHKVYACEVTHQGLSSPVTKSFNRGEC
notes: Variant of PR003259; Human IgG1 with LALA mutation in Fc
no binding (tested: 10 nM): all assays above
